Data as given in US20220273779A1, “TAU PEPTIDE ANTIGENS AND ANTIBODIES BINDING THERETO FOR THE TREATMENT OF TAUOPATHIES” (The Board of Regents of the University of Texas System, priority 2018, published 2022).
Not every detail of the peptide structures is certain; ends, links or a residue may be inferred. Some entries repeat one wording, which the source may state once for all of them. Square brackets hold non-standard residues; d marks the D form. Ends that are not written are not given here. Peptide text beside a SMILES is read from it. Pro(trans-4-F) = O=C(O)[C@@H]1C[C@@H](F)CN1

What was measured:
[1] = Thioflavin T (ThT) aggregation of tau peptides; type: physicochemical; details: for Spontaneous aggregation / amyloid formation measured by ThT fluorescence intensity: in solution, FIG. 1B, 1D
[2] = Transmission electron microscopy of tau peptide aggregates; type: physicochemical

Row | Molecule | Spontaneous aggregation / amyloid formation measured by ThT fluorescence intensity [1] | Spontaneous aggregation of R2R3 proline-analog peptides (ThT) ([1]; peptide 200 μM, FIG. 2B) | Fibril morphology by transmission electron microscopy [2]
1 | DNIKHV [^295DNIKHV^300, DNIKHV] | does not aggregate | – | –
2 | CC[C@H](C)[C@H](NC(=O)[C@H](CC(N)=O)NC(=O)[C@@H](N)CC(=O)O)C(=O)N[C@@H](CCCCN)C(=O)N[C@@H](Cc1c[nH]cn1)C(=O)N[C@H](C(=O)N1C[C@H](F)C[C@H]1C(=O)NCC(=O)NCC(=O)NCC(=O)N[C@@H](CO)C(=O)N[C@H](C(=O)N[C@@H](CCC(N)=O)C(=O)N[C@H](C(=O)N[C@H](C(=O)N[C@@H](Cc1ccc(O)cc1)C(=O)N[C@@H](CCCCN)C(=O)O)C(C)C)[C@@H](C)CC)C(C)C)C(C)C [Antibody R2R3-Trans] (H-DNIKHV[Pro(trans-4-F)]GGGSVQIVYK-OH) | – | spontaneously aggregated | –
3 | VQIVYK [^306VQIVYK^311, VQIVYK] | aggregate spontaneously and rapidly | – | –
4 | DNIKHVPGVGSVQIVYK [Antibody R2R3-G303V] | spontaneous amyloid formation | – | amyloid-like fibril morphologies
5 | DNIKHVSGGGSVQIVYK [Antibody R2R3-P301S] | spontaneous amyloid formation | – | amyloid-like fibril morphologies
6 | DNIKHVLGGGSVQIVYK [Antibody R2R3-P301L] | spontaneous amyloid formation | – | amyloid-like fibril morphologies
7 | DNIKHVPGGGSVQIVYK [wild-type R2R3] | no ThT detected up to 96 hrs | – | no large structures were found
8 | DIKHVPGGGSVQIVYK [Antibody R2R3-N296Δ] | spontaneous amyloid formation | – | amyloid-like fibril morphologies
9 | DNIKHIPGGGSVQIVYK [Antibody R2R3-V300I] | spontaneous amyloid formation | – | amyloid-like fibril morphologies
10 | DNIKHVPGGGNVQIVYK [Antibody R2R3-S305N] | spontaneous amyloid formation | – | amyloid-like fibril morphologies
